Assay results: PubChem BioAssay AID489012 (National Center for Advancing Translational Sciences (NCATS), 2010)
The inconclusive results got no clear call from the source; some entries with a clear call stand among them for comparison. Where the call is inconclusive, the potency comes from a doubtful curve fit. The source made the active and inactive calls. Calls follow the shape of the dose curve; as a rule, active = well fitted activation curve with a large enough effect; inconclusive = small, poorly fitted or top-dose-only effect; inactive = no such curve, though single readings can be large or run the other way.

molecular target: Relaxin receptor 1 (Homo sapiens) (UniProt Q9HBX9); assay: qHTS Assay for Agonists of the Relaxin Receptor RXFP1: RXFP1 Hit Validation; settings: HEK293T-RXFP1 cAMP TR-FRET, 30 min; series mostly up to 115 µM; activation: at the top concentration; also: nearly all actives have a fitted effect of over 65% in size;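 as to activation: cAMP rise lowers the TR-FRET signal in lysed cells with PDE4 inhibitor present; 0% = buffer-only basal and 100% = 29 nM porcine relaxin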
UniProt Q9HBX9, sequence (Q9HBX9 whole entry, looked up): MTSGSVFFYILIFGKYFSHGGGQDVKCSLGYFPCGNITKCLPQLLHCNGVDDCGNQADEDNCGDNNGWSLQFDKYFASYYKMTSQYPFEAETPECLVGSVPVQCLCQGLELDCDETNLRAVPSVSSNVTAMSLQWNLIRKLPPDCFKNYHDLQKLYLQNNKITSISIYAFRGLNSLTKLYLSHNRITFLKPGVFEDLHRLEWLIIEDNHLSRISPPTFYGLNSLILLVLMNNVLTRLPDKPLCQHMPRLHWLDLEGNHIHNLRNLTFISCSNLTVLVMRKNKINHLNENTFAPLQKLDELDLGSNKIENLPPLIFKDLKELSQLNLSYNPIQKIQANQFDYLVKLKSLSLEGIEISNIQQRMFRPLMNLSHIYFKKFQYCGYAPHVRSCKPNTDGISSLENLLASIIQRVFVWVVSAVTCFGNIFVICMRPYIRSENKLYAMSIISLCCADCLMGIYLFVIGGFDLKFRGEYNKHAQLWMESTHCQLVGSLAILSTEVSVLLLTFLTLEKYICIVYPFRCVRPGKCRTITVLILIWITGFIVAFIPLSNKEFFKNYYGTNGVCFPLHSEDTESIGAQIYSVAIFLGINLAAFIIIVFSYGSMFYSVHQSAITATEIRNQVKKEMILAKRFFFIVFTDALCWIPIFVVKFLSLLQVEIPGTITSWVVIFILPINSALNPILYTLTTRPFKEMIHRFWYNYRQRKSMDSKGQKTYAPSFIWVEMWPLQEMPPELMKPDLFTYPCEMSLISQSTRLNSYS
Potency is read from the fitted curve at half-maximal effect; tags tell the direction and shape of the fitted curve.

| Structure (SMILES) | Potency | activation |
| --- | --- | --- |
| Cn1c(=O)c2c(ncn2CCC(=O)N/N=C/c2cccnc2)n(C)c1=O | inconclusive: 69.1 µM [activator, partial curve] |  |
| Nc1ncnc2c1ncn2C1OC(CO)C(O)C1O (configuration not stated) | active: 1.74 µM |  |
| CCOP1(=O)OCC2OC(n3cnc4c(N)ncnc43)C(O)C2O1 (configuration not stated) | active: 6.91 µM |  |
| CC(=O)Nc1c2c3c(cccc3n(C)c1=O)C(=O)c1ccccc1-2 |  | inactive: 24.1% [at 45 µM] |
| CC(=O)Nc1ccc(S(=O)(=O)NCc2cc(=O)n(C)c(=O)n2C)cc1 | inconclusive: 21.9 µM [activator, partial curve] |  |
| COc1ccccc1NC(=O)CCCc1nnc2n(C)c(=O)c3sccc3n12 | inconclusive: 17.3 µM [activator, partial curve] |  |
| Cn1c(=O)c(C(=O)COc2ccc(C#N)cc2)c(N)n(Cc2ccccc2)c1=O | inconclusive: 30.9 µM [activator, partial curve] |  |
| Cn1c(=O)c2sccc2n2c(CCCC(=O)NCc3ccco3)nnc12 | inconclusive: 27.5 µM [activator, partial curve] |  |
| CCOC(=O)c1cc2c(=O)n3ccccc3nc2n(Cc2ccco2)c1=NC(=O)c1ccccc1OCC | inconclusive: 47.3 µM [activator, partial curve] |  |
| Cc1cc(NC(=O)c2ccccc2F)nc2c1c(=O)oc1ccccc12 | active: 17.3 µM |  |
| CNc1ccc(/C=C(\C#N)C(=O)Nc2ccccn2)cc1[N+](=O)[O-] | inconclusive: 30.9 µM [activator, partial curve] |  |
| Cc1cc(C(=O)OCC(=O)c2ccc(Br)s2)no1 | inconclusive: 21.8 µM [activator, partial curve] |  |
| O=C(Nc1ccccc1C(=O)NCc1ccc(Cl)cc1)c1ccco1 |  | inactive: -6.16% [at 125 µM] |
| CN1C(=O)c2ccc(C(=O)Nc3ccc(Br)cn3)cc2C1=O | inconclusive: 19.4 µM [activator, partial curve] |  |
| Cc1cc(NC(=O)CSc2ncnc3c2cnn3-c2cccc(Cl)c2)no1 |  | inactive: 15.1% [at 45 µM] |
| COC(=O)c1nc2ccc(N3CCOCC3)cc2c(C)c1C(=O)OC | active: 34.6 µM |  |
| CC(C)n1c(CN2CCN(C(=O)c3ccco3)CC2)nc2c1c(=O)n(C)c(=O)n2C |  | inactive: 28.8% |
| CCN(CC)S(=O)(=O)c1ccc(C(=O)NCCN2C(=O)S/C(=C\c3cccnc3)C2=O)cc1 | inconclusive: 24.5 µM [activator, partial curve] |  |
| N=c1c(C(=O)NC2CCCCC2)cc2c(=O)n3ccccc3nc2n1CC1CCCO1 (configuration not stated) | inconclusive: 34.6 µM [activator, partial curve] |  |

| Structure (SMILES) | Potency | activation |
| --- | --- | --- |
| COc1cc(Cl)c(C)cc1NC(=O)c1ccc2c(c1)OCO2 |  | inactive: -3.24% [at 45 µM] |
| O=C(CCc1nnc2ccc(NCCCN3CCCC3=O)nn12)NCc1ccccc1Cl |  | inactive: 2.42% |
| COc1ccc(S(=O)(=O)N(C)C)cc1NC(=O)CSc1nncs1 | inconclusive: 38.9 µM [activator, partial curve] |  |
| CCN(CC)S(=O)(=O)c1ccc2c(c1)N(CC(=O)Nc1cccnc1Cl)C(=O)CO2 | inconclusive: 19.4 µM [activator, partial curve] |  |
| CCn1c(SCC(=O)Nc2c(C)n(C)n(-c3ccccc3)c2=O)nc2c1c(=O)n(C)c(=O)n2C | inconclusive: 24.5 µM [activator, partial curve] |  |
| CCCC(=O)Nc1ncnc2c1ncn2[C@@H]1O[C@@H]2COP(=O)(O)O[C@H]2[C@H]1OC(=O)CCC | active: 0.774 µM |  |
| Cn1c(=O)c2c(nc(Cc3ccc(N)cc3)n2C)n(C)c1=O | inconclusive: 30.9 µM [activator, partial curve] |  |
| CCC(=O)Nc1ccc(-n2nnnc2SCC(=O)NNC(=O)c2ccco2)cc1 |  | inactive: -4.13% |
| CCC(Sc1ccc2nnc(-c3cccnc3)n2n1)C(=O)OC (configuration not stated) | inconclusive: 21.8 µM [activator, partial curve] |  |
| Cn1c([N+](=O)[O-])cnc1N1CCN(c2nncs2)C1=O | inconclusive: 24.5 µM [activator, partial curve] |  |
| CN(C(=O)COC(=O)Cn1cnc2c1c(=O)n(C)c(=O)n2C)C1(C#N)CCCCC1 | inconclusive: 19.4 µM [activator, partial curve] |  |
| CC(C)Oc1ccc(S(=O)(=O)N2CCOCC2)cc1NC(=O)c1cc([N+](=O)[O-])ccc1N1CCOCC1 | inconclusive: 47.3 µM [activator, partial curve] |  |
| CCc1cc2c(=O)nc3n(c2s1)Cc1ccccc1/C3=C(/O)c1cccc([N+](=O)[O-])c1 | active: 5.3 µM |  |
| C=C(C)C(=O)Nc1cccc(C2=NOC3(C2)C[C@@H](C(N)=O)N(C(=O)c2ccc(Cl)cc2)C3)c1 (some centres not stated) |  | inactive: 4.05% |
| Cn1nc(-c2ccc(Cl)cc2)nc2c(=O)n(C)c(=O)nc1-2 | inconclusive: 13.8 µM [activator, partial curve] |  |
| CCS(=O)(=O)c1nc(S(=O)(=O)c2ccc(Cl)cc2)c(N2CCN(CCO)CC2)s1 | inconclusive: 37.5 µM [activator, partial curve] |  |
| O=C(Nc1ccccc1C(=O)O)c1ccc(NC(=O)C2CC2)cc1 |  | inactive: -5.11% [at 45 µM] |
| COc1ccc(S(=O)(=O)N2CCOCC2)cc1NC(=O)CSc1ncnc2ccccc12 | inconclusive: 13.8 µM [activator, partial curve] |  |
